US20110044980A1 (AbbVie / Abbott, published 2011)

B1: DVD1060 (bispecific antibody)
VH: QVQLVESGGGLVKPGGSLRLSCAASGFTFSSYGMHWVRQAPGKGLEWVAFIRYDGSNKYYADSVKGRFTISRDNSKNTLYLQMNSLRAEDTAVYYCAKDRGLGDGTYFDYWGQGTTVTVSSASTKGPSVFPLAP[letters of about 120 residues not shown]
VL: QSALTQPASVSGSPGQSITISCSGSSSNIGNNAVNWYQQLPGKAPKLLIYYDDLLPSGVSDRFSGSKSGTSAFLAISGLQSEDEADYYCAAWDDSLNGPVFGGGTKLTVLGQPKAAPSVTLFPP[letters of about 100 residues not shown]
notes: also called DVD1060H + DVD1060L
B2: DVD1061 (bispecific antibody)
VH: [letters of about 120 residues not shown]ASTKGPSVFPLAPQVQLVESGGGLVKPGGSLRLSCAASGFTFSSYGMHWVRQAPGKGLEWVAFIRYDGSNKYYADSVKGRFTISRDNSKNTLYLQMNSLRAEDTAVYYCAKDRGLGDGTYFDYWGQGTTVTVSS
VL: [letters of about 100 residues not shown]RTVAAPSVFIFPPQSALTQPASVSGSPGQSITISCSGSSSNIGNNAVNWYQQLPGKAPKLLIYYDDLLPSGVSDRFSGSKSGTSAFLAISGLQSEDEADYYCAAWDDSLNGPVFGGGTKLTVLG
notes: also called DVD1061H + DVD1061L

What was measured:
NKG2D [1] = target: T1, NKG2D (human, UniProt P26718 1-216); experiment: flow cytometry (FACSCanto), cells carrying the target (line not given), 2 ug/mL
T1 construct: whole, on cells; also called NKGD
T1 sequence (looked up): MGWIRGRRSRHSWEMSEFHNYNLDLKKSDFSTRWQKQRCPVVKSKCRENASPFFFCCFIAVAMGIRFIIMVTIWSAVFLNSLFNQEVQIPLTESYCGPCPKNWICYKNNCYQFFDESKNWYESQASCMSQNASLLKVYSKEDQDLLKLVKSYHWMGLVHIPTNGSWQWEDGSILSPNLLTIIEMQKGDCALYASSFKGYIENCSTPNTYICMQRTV

NKG2D [2] = target: T1, NKG2D; experiment: flow cytometry (FACSCalibur), activated NK cells, 10 ug/ml, R-PE GMFI on CD56+ live cells

| Binder | FACS Geometric Mean N-terminal (NKG2D [1]) | FACS Geometric Mean N-terminal (NKG2D [2]) | FACS Geometric Mean C-terminal (NKG2D [1]) | FACS Geometric Mean C-terminal (NKG2D [2]) |
| --- | --- | --- | --- | --- |
| B1 | 299 | 28.9 |  |  |
| B2 |  |  | 220 | 29.2 |
